Results taken from the supplement of paper PMC8728848.
The other results are listed elsewhere or left out.

Key:
Test in all cases: glycan array binding signal (z-score within array); higher = stronger binding
Conditions in all cases: glycan notation: IUPAC condensed, linker removed
Gal(b1-3)GlcNAc6S = biological target: Gal(b1-3)GlcNAc6S
Procedure, shortened: (§1)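 From the Consortium for Functional Glycomics database, 3228 arrays were curated, keeping only those whose protein sequence was available. Binding is given as a within-array Z-score averaged across arrays sharing a protein sequence and across linkers. Negative Z-scores can be read as non-binding.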

[1] = biological target: Gal(b1-3)[Fuc(a1-4)]GlcNAc
Procedure, shortened: as §1

[2] = biological target: Gal(b1-3)[Fuc(a1-4)]GlcNAc(b1-2)Man(a1-3)[Gal(b1-3)[Fuc(a1-4)]GlcNAc(b1-2)Man(a1-6)]Man(b1-4)GlcNAc(b1-4)[Fuc(a1-6)]GlcNAc
Procedure, shortened: as §1

[3] = biological target: Gal(b1-3)[Fuc(a1-4)]GlcNAc(b1-3)Gal(b1-3)[Fuc(a1-4)]GlcNAc
Procedure, shortened: as §1

[4] = biological target: Gal(b1-3)[Fuc(a1-4)]GlcNAc(b1-3)Gal(b1-4)GlcNAc
Procedure, shortened: as §1

[5] = biological target: Gal(b1-3)[Fuc(a1-4)]GlcNAc(b1-3)Gal(b1-4)[Fuc(a1-3)]GlcNAc
Procedure, shortened: as §1

[6] = biological target: Gal(b1-3)[Fuc(a1-4)]GlcNAc(b1-6)GalNAc
Procedure, shortened: as §1

[7] = biological target: Gal(b1-3)[GlcNAc(b1-6)]GalNAc
Procedure, shortened: as §1

[8] = biological target: Gal(b1-3)[Neu5Ac(a2-6)]GalNAc
Procedure, shortened: as §1

[9] = biological target: Gal(b1-3)[Neu5Ac(a2-6)]GlcNAc(b1-6)Gal(b1-4)Glc
Procedure, shortened: as §1

[10] = biological target: Gal(b1-3)[Neu5Ac(b2-6)]GalNAc
Procedure, shortened: as §1

Gal(b1-4)Gal = biological target: Gal(b1-4)Gal
Procedure, shortened: as §1

[11] = biological target: Gal(b1-4)GalNAc(a1-3)[Fuc(a1-2)]Gal(b1-4)GlcNAc
Procedure, shortened: as §1

[12] = biological target: Gal(b1-4)GalNAc(b1-3)[Fuc(a1-2)]Gal(b1-4)GlcNAc
Procedure, shortened: as §1

Gal(b1-4)Glc = biological target: Gal(b1-4)Glc
Procedure, shortened: as §1

Gal(b1-4)Glc6S = biological target: Gal(b1-4)Glc6S
Procedure, shortened: as §1

Gal(b1-4)GlcNAc = biological target: Gal(b1-4)GlcNAc
Procedure, shortened: as §1

[13] = biological target: Gal(b1-4)GlcNAc(a1-6)Gal(b1-4)GlcNAc
Procedure, shortened: as §1

Gal(b1-4)GlcNAc(b1-2)Man = biological target: Gal(b1-4)GlcNAc(b1-2)Man
Procedure, shortened: as §1

[14] = biological target: Gal(b1-4)GlcNAc(b1-2)Man(a1-3)Man(b1-4)GlcNAc(b1-4)GlcNAc
Procedure, shortened: as §1

[15] = biological target: Gal(b1-4)GlcNAc(b1-2)Man(a1-3)[Gal(b1-4)GlcNAc(b1-2)Man(a1-6)]Man(b1-4)GlcNAc(b1-4)GlcNAc
Procedure, shortened: as §1

[16] = biological target: Gal(b1-4)GlcNAc(b1-2)Man(a1-3)[Gal(b1-4)GlcNAc(b1-2)Man(a1-6)]Man(b1-4)GlcNAc(b1-4)[Fuc(a1-6)]GlcNAc
Procedure, shortened: as §1

[17] = biological target: Gal(b1-4)GlcNAc(b1-2)Man(a1-3)[Gal(b1-4)GlcNAc(b1-2)][GlcNAc(b1-4)]Man(b1-4)GlcNAc(b1-4)GlcNAc
Procedure, shortened: as §1

[18] = biological target: Gal(b1-4)GlcNAc(b1-2)Man(a1-3)[GlcNAc(b1-2)Man(a1-6)]Man(b1-4)GlcNAc(b1-4)GlcNAc
Procedure, shortened: as §1

[19] = biological target: Gal(b1-4)GlcNAc(b1-2)Man(a1-3)[Man(a1-6)]Man(b1-4)GlcNAc(b1-4)GlcNAc
Procedure, shortened: as §1

[20] = biological target: Gal(b1-4)GlcNAc(b1-2)Man(a1-6)Man(b1-4)GlcNAc(b1-4)GlcNAc
Procedure, shortened: as §1

[21] = biological target: Gal(b1-4)GlcNAc(b1-2)Man(a1-6)[GlcNAc(b1-2)Man(a1-3)]Man(b1-4)GlcNAc(b1-4)GlcNAc
Procedure, shortened: as §1

[22] = biological target: Gal(b1-4)GlcNAc(b1-2)Man(a1-6)[Man(a1-3)]Man(b1-4)GlcNAc(b1-4)GlcNAc
Procedure, shortened: as §1

[23] = biological target: Gal(b1-4)GlcNAc(b1-2)[Gal(b1-4)GlcNAc(b1-4)]Man(a1-3)[Gal(b1-4)GlcNAc(b1-2)Man(a1-6)]Man(b1-4)GlcNAc(b1-4)GlcNAc
Procedure, shortened: as §1

[24] = biological target: Gal(b1-4)GlcNAc(b1-2)[Gal(b1-4)GlcNAc(b1-4)]Man(a1-3)[Gal(b1-4)GlcNAc(b1-2)[Gal(b1-4)GlcNAc(b1-6)]Man(a1-6)]Man(b1-4)GlcNAc(b1-4)GlcNAc
Procedure, shortened: as §1

B1: PitA (Streptococcus oralis), G3F8D8 (protein)
chain: MNIRFDFKKVQIIARRLVTLLAILFLCAPISLLNADSTTEPQTTLHKTITPISGQDDKYELSLDITSKLGTETQTDPLDVVLVADLSGSMQNQDVQSFDGRTISRIDALKNTLRGTNGRKGLIDTILSNSNNRLSMVGFGGKIDNKKVDQYWDGNKWRLFRPYWPYERMTKYYDGVSPWDDANTILGWSNNARAAKTAVYNMSIAGGNSIGTESGIGTGTNIGAGLTLANQLMGSARSNAKKVVILLSDGFANMVYDANGYTIYNYNNEDPNIETAPQWFWDRLNNNLNSLSYSLAPTLDGFYSIKFRYSNNVDSITSLQYYMRQHNASIPNEIFSANDEDQLRDSFKDITDKILPLGIHHVSIKDVLSKYVQLLPNGSSEFRVVKEKDGSSEILIENQVTFDTKTTSEGLVEVTAKFSPNYSLEDGARYVLKFTVTSSQEALDAIAGDKKLEAGDAEGSDVNKLYSNKGASVTYSYGIGNSQTKTKEYSDNPTFKPSDPLTVPVEVEWQGVTGARTVITADQPSNVELKLVQKNKNGGSDNQDYRKTNVNVSKNVSNETRNFEKVAKGYQYDLIAPDVPAFTKEIKNVGTESKPSFKVIYKQLPSLTIKKVLEAENNLNKEFRIKVKLTSPDSKPLNGTFGEITVVNGEAEIRVEKRKRWEGILSYLPRGTHYKVEEEAASTNGYHVTYENQEGDLNKDETSIVTNHKLPSLSVTKKVTGVFANLLKSFKITINIRDAQNSPLNGTYTATVNNKRTPLQFTNGRASIDLNKDQTIKIYGLPLDSHYTVEEESNSSRGYQVSYENQEGKLDGDKSATVTNNKNSVPETGVDFLSSTLMLGIILPLGGIFFTILLGYLVVHRRK
- glycan array binding signal (z-score) (Gal(b1-3)GlcNAc6S): 0.209
- glycan array binding signal (z-score) [1]: 0.644
- glycan array binding signal (z-score) [2]: 1.74
- glycan array binding signal (z-score) [3]: 0.203
- glycan array binding signal (z-score) [4]: -0.492
- glycan array binding signal (z-score) [5]: 0.082
- glycan array binding signal (z-score) [6]: 0.46
- glycan array binding signal (z-score) [7]: -0.437
- glycan array binding signal (z-score) [8]: -0.685
- glycan array binding signal (z-score) [9]: -0.417
- glycan array binding signal (z-score) [10]: -0.63
- glycan array binding signal (z-score) (Gal(b1-4)Gal): -0.023
- glycan array binding signal (z-score) [11]: -0.722
- glycan array binding signal (z-score) [12]: -0.376
- glycan array binding signal (z-score) (Gal(b1-4)Glc): -0.397
- glycan array binding signal (z-score) (Gal(b1-4)Glc6S): 0.214
- glycan array binding signal (z-score) (Gal(b1-4)GlcNAc): -0.34
- glycan array binding signal (z-score) [13]: -0.028
- glycan array binding signal (z-score) (Gal(b1-4)GlcNAc(b1-2)Man): -0.212
- glycan array binding signal (z-score) [14]: -0.431
- glycan array binding signal (z-score) [15]: -0.186
- glycan array binding signal (z-score) [16]: 0.386
- glycan array binding signal (z-score) [17]: 0.242
- glycan array binding signal (z-score) [18]: -0.324
- glycan array binding signal (z-score) [19]: -0.248
- glycan array binding signal (z-score) [20]: -0.248
- glycan array binding signal (z-score) [21]: -0.058
- glycan array binding signal (z-score) [22]: 0.021
- glycan array binding signal (z-score) [23]: -0.211
- glycan array binding signal (z-score) [24]: -0.584
